Assay results from PubChem BioAssay AID1671193 (National Center for Advancing Translational Sciences (NCATS), 2021).
Out of some 150,000 compounds screened, about 180 (0.12%) were called active. Inconclusive results, whose numbers are uncertain, are shown with a selection of clear calls. Calls follow the shape of the dose curve; as a rule, active = well fitted cell-killing curve with a large enough effect; inconclusive = small, poorly fitted or top-dose-only effect, or effect the other way; inactive = flat fitted curve, though single readings scatter. Potencies of inconclusive entries are doubtful fits and often do not repeat.

Test: GF-AFC viability counterscreen for inhibitors of alpha-synuclein gene (SNCA) expression; also: nearly all actives have a fitted effect of over 30% in size;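 as to activity change, negative = cytotoxicity: 0% = DMSO-treated cells and -100% = medium-only wells without cells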
Conditions: HEK-293-SNCA-luc viability, GF-AFC fluorescence, 24 h; activity change, negative = cytotoxicity: at 57.1 µM (top of the series) unless noted
In short: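 Cytotoxicity counterscreen: after 24 h compound treatment of genome-edited SNCA-luciferase HEK-293 cells, live-cell protease substrate GF-AFC read by fluorescence after 30 min; activity scaled between DMSO (0%) and medium-only (-100%), curves Hill-fitted.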
Potency is read from the fitted curve at half-maximal effect; tags tell the direction and shape of the fitted curve.

| Structure (SMILES) | Potency | activity change, negative = cytotoxicity |
| --- | --- | --- |
| CC1CCn2c(nc3cc(C(=O)NCc4ccc(OC(C)C)cc4)ccc32)C1 (stereo not drawn) | inconclusive: 1.41 µM [rising, full curve] | – |
| COc1ccc(-c2nc3cnc(N4CCNCC4)nc3n(Cc3cccs3)c2=O)cc1 | inconclusive: 22.4 µM [rising, partial curve] | – |
| CC(C)C[C@H](NC(=O)CNC(=O)c1cc(Cl)ccc1Cl)B1OC(=O)CC(CC(=O)O)(C(=O)O)O1 (stereo partly drawn) | inconclusive: 1.36 µM [cytotoxic, full curve] | – |
| CS(=O)(=O)c1ccc(O[C@H]2COCCN(C3CCC3)C2)cc1 | – | inactive: 3.14% [at 87.6 µM] |
| COc1ccc(-c2nc3scc(CCNC(=O)c4cccc(Br)c4)n3n2)cc1 | inconclusive: 10 µM [cytotoxic, partial curve] | – |
| CC(C)c1ccc(C(=O)N2CC(C(=O)NC3CCCCC3)C3(CCOCC3)C2)cc1 (stereo not drawn) | inconclusive: 39.8 µM [cytotoxic, single point] | – |
| CC(C)N(Cc1ccccc1)C(=O)C1CCCN(c2ncnc3onc(-c4ccc(F)cc4)c23)C1 (stereo not drawn) | inconclusive: 14.1 µM [cytotoxic, partial curve, poor fit] | – |
| Cc1n[nH]c(C)c1C(N)C(=O)N1CC2(C)CN(C)CC(C)(C1)C2O (stereo not drawn) | inconclusive: 35.5 µM [cytotoxic, single point] | – |
| COc1ccc2[nH]cc(CCNc3ncnc4ccc(-c5cccnc5)cc34)c2c1 | inconclusive: 39.8 µM [cytotoxic, single point] | – |
| Cc1c(C(=O)N2CCC(C)CC2)c(S(=O)(=O)Nc2cccc(C(F)(F)F)c2)c(C)n1C | inconclusive: 12.6 µM [cytotoxic, partial curve] | – |
| Cc1nn2c(c1-c1ccccc1OCc1ccccc1)N(C(=O)Cc1ccccc1)CCC2 | inconclusive: 35.5 µM [cytotoxic, single point] | – |
| Cc1ccc(C(=O)N2C[C@H](c3nc(-c4cccnc4)no3)[C@@H](C)C2)c(C)c1 | – | inactive: -20.1% |
| COc1ccccc1CN1CCN(C(=O)C2CCCN(Cc3cccnc3)CCC(=O)NCC2)CC1 (stereo not drawn) | inconclusive: 7.94 µM [rising, single point] | – |
| Cc1cc(C)c(CNC(=O)c2cc(Nc3ccccc3)cc3ncn(C)c23)c(=O)[nH]1 | inconclusive: 17.8 µM [cytotoxic, partial curve, poor fit] | – |
| CC1CCN(c2ccc(-c3cccc(NC(=O)NC(C)C)c3)nn2)CC1 | – | inactive: 1.81% |
| COc1ccc(Nc2c3c(nc4ccc(NC(=O)c5cc(Cl)ccc5OC)cc24)CCCC3)cc1OC | inconclusive: 39.8 µM [cytotoxic, single point] | – |
| COc1ccccc1-c1nc2cnccn2c1NCCC(=O)Nc1ccc2c(c1)OCO2 | inconclusive: 4.47 µM [rising, full curve, poor fit] | – |
| COCCn1c(=O)c(CCc2ccccc2)nc2cnc(Nc3ccccc3)nc21 | inconclusive: 22.4 µM [rising, single point] | – |
| O=C(NCC1CCCCN1)c1cc(OCC(F)(F)F)ccc1OCC(F)(F)F (stereo not drawn) | inconclusive: 2.51 µM [rising, full curve, poor fit] | – |

| Structure (SMILES) | Potency | activity change, negative = cytotoxicity |
| --- | --- | --- |
| COc1cc(N2CCC(N3CCN(C)CC3)CC2)ccc1Nc1ncc(Cl)c(Nc2ccccc2S(=O)(=O)C(C)C)n1 | inconclusive: 29.9 µM [cytotoxic, single point] | – |
| Cc1cccc(N(CC(=O)N(C)Cc2ccccc2)S(=O)(=O)c2ccccc2)c1C | inconclusive: 44.7 µM [cytotoxic, single point] | – |
| O=C(NCc1ccccc1F)c1ccc2c(c1)CN(Cc1ccc3c(c1)CCO3)CCO2 | inconclusive: 44.7 µM [cytotoxic, single point] | – |
| COCCN1CCN(C[C@@H]2C=C(C)[C@H](Cc3nnc(COc4ccc(F)cc4)o3)C[C@H]2C(C)C)CC1 | – | inactive: -1.2% |
| Cc1nc(CCNc2nc(-c3ccccn3)nc3c2c(C)nn3C)no1 | – | inactive: -11.8% |
| COc1cccc(NC(=O)CSC2=Nc3ccccc3C3=NC(CC(=O)NCc4ccccc4OC)C(=O)N23)c1 (stereo not drawn) | inconclusive: 15.8 µM [cytotoxic, partial curve, poor fit] | – |
| Clc1ccccc1-c1nnc(SCc2nc(-c3ccccc3)no2)n1-c1ccccc1 | inconclusive: 25.1 µM [cytotoxic, single point] | – |
| COc1ccc(Cl)cc1NC(=O)c1sc2nc(-c3ccc(OC)c(OC)c3)ccc2c1N | inconclusive: 2.51 µM [rising, full curve, poor fit] | – |
| COc1ccc(CCNC(=O)CSCc2nc(-c3cccc(C)c3)oc2C)cc1OC | inconclusive: 17.8 µM [cytotoxic, partial curve, poor fit] | – |
| O=C(NCc1ccccc1)c1ccc2c(c1)N(Cc1ccc(F)cc1)CCS2 | inconclusive: 8.91 µM [cytotoxic, partial curve, poor fit] | – |
| CC(C)CCNC(=O)CCC1CCCN(S(=O)(=O)c2cccc(F)c2)C1 (stereo not drawn) | – | inactive: 0.59% |
| COc1ccc(NC(=O)c2c(NCc3cccs3)sc3c2CCCCC3)c(OC)c1 | inconclusive: 39.8 µM [cytotoxic, single point] | – |
| N#Cc1cccc(CN2CCC3(CC2)COCCN3C(=O)OCc2ccccc2)c1 | inconclusive: 8.91 µM [cytotoxic, full curve, poor fit] | – |
| CCCn1cc(S(=O)(=O)c2ccc(CC)cc2)c(=O)c2cc(F)c(N3CCN(C)CC3)cc21 | inconclusive: 2 µM [cytotoxic, partial curve, poor fit] | – |
| N#Cc1ccc(CN2CC(CNC(=O)Nc3ccccc3)C3(C2)CN(c2ccccc2)C3)cc1 (stereo not drawn) | – | inactive: -25.7% |
| CN1CCN(c2ncc3nc(-c4ccc(F)cc4)c(=O)n(Cc4cccs4)c3n2)CC1 | inconclusive: 12.6 µM [rising, partial curve, poor fit] | – |
| Cc1ccc(NC(=O)c2ccc(N(Cc3ccccc3)S(C)(=O)=O)cc2)cc1 | active: 2.82 µM | – |
| COc1ccc(C(=O)N2CCC(Cc3nncn3-c3ccccc3)C2)cc1F (stereo not drawn) | inconclusive: 39.8 µM [cytotoxic, partial curve, poor fit] | – |
| COc1ccc(-c2nc3ccccc3s2)cc1NC(=O)c1cccc(F)c1 | – | inactive: 5.23% |
